Data from PMC6919601, “Identification of Plasmodium dipeptidyl aminopeptidase allosteric inhibitors by high throughput screening” (PLoS ONE, 2019).
About 230 (0.21%) of roughly 110,000 compounds showed an effect of 50% or more. The list shows a part of the results.

Biological target: DPAP1 (Plasmodium falciparum, UniProt Q8IIJ9)
Experiment: primary screen, percent inhibition; read by cleavage of a fluorogenic dipeptide substrate; higher = more effect of the substance
Parameters: species or system P. falciparum D10 trophozoite lysates; single well
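Further: 30 min substrate incubation versus DMSO and 10 µM JCP410 controls.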

Sequence of DPAP1 (Q8IIJ9 whole entry, looked up): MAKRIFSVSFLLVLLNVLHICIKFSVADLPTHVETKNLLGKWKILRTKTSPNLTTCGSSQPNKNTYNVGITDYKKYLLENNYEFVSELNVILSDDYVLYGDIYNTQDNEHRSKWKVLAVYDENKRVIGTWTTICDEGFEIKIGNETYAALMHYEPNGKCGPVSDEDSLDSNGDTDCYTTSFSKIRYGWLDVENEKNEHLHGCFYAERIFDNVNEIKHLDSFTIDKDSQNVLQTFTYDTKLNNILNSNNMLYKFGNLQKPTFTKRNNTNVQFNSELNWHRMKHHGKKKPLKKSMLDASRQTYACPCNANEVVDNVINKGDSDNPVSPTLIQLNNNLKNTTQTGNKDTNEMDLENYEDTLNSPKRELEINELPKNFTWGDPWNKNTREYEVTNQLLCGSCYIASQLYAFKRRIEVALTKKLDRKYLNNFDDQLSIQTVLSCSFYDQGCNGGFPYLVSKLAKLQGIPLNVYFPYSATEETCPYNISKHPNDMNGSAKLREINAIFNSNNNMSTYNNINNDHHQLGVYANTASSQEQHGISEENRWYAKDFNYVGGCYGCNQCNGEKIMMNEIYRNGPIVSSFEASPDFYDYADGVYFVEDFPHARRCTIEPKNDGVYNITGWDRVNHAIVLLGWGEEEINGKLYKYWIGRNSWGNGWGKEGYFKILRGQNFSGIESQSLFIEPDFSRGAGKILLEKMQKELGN

Row | Structure (SMILES) | % Inhibition @ 10 uM [%]
1 | CC(=O)c1ccc(N2CCN(Cc3ccccc3C(F)(F)F)CC2)cc1 | -2.02
2 | CCOc1ccc(C(=O)Nc2nnc(CC)s2)cc1Cl | 10.6
3 | Cc1cc(C(NC(C)(C)C)C(=O)O)cc(C)c1O (stereo not shown) | 5.42
4 | c1ccc2c(CCNCc3ccc4c(c3)OCO4)c[nH]c2c1 | 0.147
5 | CC(C)Oc1ccc(CNC(=O)CCn2cccn2)cc1 | -1.38
6 | COC(=O)c1ccc(C2CC(=O)NC3=C2C(=O)CC(c2cccs2)C3)cc1 (stereo not shown) | 2.54
7 | Cc1cc(C)c(OCC(=O)N2CCCC(C)C2)c(C)c1 (stereo not shown) | -3.25
8 | Cc1ccc2c(Cl)c(C(=O)N(Cc3cccs3)C3CCS(=O)(=O)C3)sc2c1 (stereo not shown) | 0.413
9 | CSc1ccc(C2C(C#N)=C(N)Oc3cc(C)oc(=O)c32)cc1 (stereo not shown) | -2.32
10 | CCOC(=O)c1c(NC(=O)COc2ccc(C(C)(C)C)cc2)sc2c1CCC2 | -0.769
11 | O=C(Nc1cc(-c2ccccc2)sc1C(=O)O)c1cccc(Cl)c1 | 2.84
12 | COc1ccc(N2CCN(Cc3cc(OC)cc(OC)c3)CC2)cc1 | 3.65
13 | CC(C)C[C@H](NC(=O)OCc1ccccc1)C(=O)NC1(C#N)CCSCC1 | 0.173
14 | CCOC(=O)c1cc(-c2ccc(C)cc2)n(CC(=O)NCC2COc3ccccc3O2)c1C (stereo not shown) | 4.88
15 | O=[N+]([O-])c1cc2c(s1)CCCC/C2=N\O | -2.7
16 | Cc1cc(C)n(Cc2ccc(C(=O)N3N=C(C(F)F)CC3(O)C(F)F)o2)n1 (stereo not shown) | -2.85
17 | Cc1nc(SC(C)C(=O)O)nc(O)c1Cc1ccccc1 (stereo not shown) | 0.658
18 | CNC(=O)CN1C(=O)CSc2c1c(C)nn2-c1ccccc1 | -0.477
19 | Clc1ccc(-c2cc[nH]n2)cc1 | -0.447
20 | CCCC(=O)Nc1ccc(C(=O)Nc2ccccc2C(F)(F)F)cc1 | -0.545
21 | CC(Nc1cc(N2CCOCC2)ccc1[N+](=O)[O-])C12C[C@H]3C[C@@H](C1)C[C@@H](C2)C3 (stereo partly shown) | -0.436
22 | CC1=CC2=NC(=O)/C(=C\c3ccc(OCCOc4ccc(C)c(C)c4)c(Cl)c3)C(=N)N2O1 | -5.1

Row | Structure (SMILES) | % Inhibition @ 10 uM [%]
23 | CCOC(=O)c1cnn(CCOC(=O)c2cccc(F)c2)c1NC(=O)c1cccc(F)c1 | -1.21
24 | CCOc1ccccc1NC(=O)COc1ccc(Cl)cc1Cl | 3.29
25 | COc1cc(C=C2C(=O)c3ccccc3C2=O)ccc1O | -1.77
26 | COC(=O)c1cnn2c(O)c(Cc3ccccc3Cl)c(C)nc12 | -2.14
27 | N#C/C(=C\c1ccccc1Cl)c1nc(-c2ccc(Cl)cc2)cs1 | -1.97
28 | Cc1ccc(-c2c(C)c(-c3ccccc3)nc(N)c2C#N)o1 | -1.33
29 | COc1cc(C(=O)Nc2ccc(Cl)cc2)cc(OC)c1OC | 0.231
30 | O=C(NCCCn1ccnc1)c1cc2nc(-c3ccc(Br)cc3)cc(C(F)(F)F)n2n1 | -1.37
31 | CC(=O)c1ccc(N2CCN(C(=O)c3cc(F)c(F)cc3Br)CC2)c(F)c1 | 3.29
32 | Cc1ccc(-c2cc(C(F)F)n3ncc(C(=O)NC(C)c4ccccc4)c3n2)cc1 (stereo not shown) | 0.778
33 | COc1ccc(C2OC(=O)Cc3cc(OC)c(OC)cc32)cc1 (stereo not shown) | 3.42
34 | COc1ccccc1OCc1ccc(C(=O)N2CCc3ccccc3C2)o1 | -3.13
35 | CCCCN1Cc2c(sc3c2CCCC3)N(C(C)=O)C1 | 4.98
36 | Cc1ccccc1-c1nc2sc3c(c2c(=O)o1)CCCC3 | -3.5
37 | CCc1c(C)c(C#N)c2nc3ccccc3n2c1N(C)C | -3.23
38 | COc1cccc(/C=C2\SC(=O)NC2=O)c1OCc1ccc(C(=O)O)cc1 | -4.43
39 | OCCN1c2ccccc2CCc2ccccc21 | -5.14
40 | COc1ccc2c3c([nH]c2c1)C(C)(C(=O)O)NCC3 (stereo not shown) | 0.627
41 | C/N=c1\c(NC(=O)c2ccccc2C)c(O)oc2ccccc12 | -2.78
42 | O=C1CN(S(=O)(=O)c2ccc(Cl)cc2)CC(=O)N1CCc1ccccc1 | -3.52
43 | Cc1cc(C)cc(NC(=O)CN2CCCCC2)c1 | -6.25
44 | Cc1ccc(C(=O)NC(C)c2ccc3c(c2)OCO3)cc1 (stereo not shown) | 0.709

Row | Structure (SMILES) | % Inhibition @ 10 uM [%]
45 | O=C1NC(=S)NC(=O)C1=Cc1ccccc1OCCO | -6.17
46 | CCOc1ccc(NS(=O)(=O)c2ccc(NC(=O)Nc3ccc(Cl)cc3)cc2)cc1 | 0.245
47 | CCSc1nc(C)cc(COC)c1C#N | 2.94
48 | CCOc1ccc(C(=O)NCc2ccccc2)cc1 | 3.48
49 | Cc1ccc(S(N)(=O)=O)cc1NC(=O)c1cccc(F)c1F | 0.992
50 | Clc1ccc(N2CCN(Cc3ccc(Cl)cc3Cl)CC2)cc1 | 4.04
51 | Cn1cc(C(=O)NCCc2ccc(Cl)cc2)c2c3ccccc3n(C)c2c1=O | 6.87
52 | Cc1cc(OCC(=O)Nc2ccc(NC(=O)C(C)C)cc2)ccc1Cl | -6.22
53 | O=C(Nc1nnc(N2CCCCCC2)s1)c1csc2c1CCCC2 | -5.32
54 | COc1ccc(S(=O)(=O)N2CCN(S(=O)(=O)c3ccc(OC)c(C)c3)CC2)cc1C | 2.22
55 | O=C1C2CCCN2C(c2ccc(Cl)cc2Cl)N1c1nccs1 (stereo not shown) | -2.29
56 | CC1(C)CC(=O)C2=C(C1)c1c(ccc3ncccc13)NC2c1ccc2c(c1)OCO2 (stereo not shown) | 9.33
57 | O=C(/C=C/c1ccc(Cl)cc1)N(Cc1cccc(F)c1)C1CCS(=O)(=O)C1 (stereo not shown) | 1.82
58 | O=C(NCCCc1ccccc1)c1csc2c1CCCCC2 | 0.277
59 | Cc1ccnc(NC(=O)C(CC(C)C)N2Cc3ccccc3C2=O)c1 (stereo not shown) | -1.58
60 | O=c1c2nnn(-c3cccc(Cl)c3)c2ncn1Cc1ccccc1F | -5.79
61 | CCOC(=O)c1c(NC(=O)C2Cc3ccc(C)cc3C(=O)O2)sc(C)c1C (stereo not shown) | 1.91
62 | CN(C)C(=O)c1ccc(-c2nnc(NCc3ccccc3)c3ccccc23)cc1 | -2.87
63 | O=C1c2ccc(-c3ccc4c(c3)C(=O)N(c3ccccc3O)C4=O)cc2C(=O)N1c1ccccc1O | -5.36
64 | COC(=O)c1c(NC(=O)C2CC2c2ccccc2)sc(C)c1C (stereo not shown) | -2.87
